Drawing on the supplement of paper PMC7726561, this text covers thermal melting temperature for 56 sequences.

Over roughly 1,400 sequences, “thermal melting temperature (Tm) of peptide-HLA complex” has its median near 60; the lowest 2% begin near 45. The list shows a part of the results.
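Further: cell lysates heated 10 min at 37–73 °C, remaining pHLA pulled down with pan-class I antibody, peptides quantified by DIA-MS versus 37 °C, Tm where half the complex is lost.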

In this assay the target is HLA-B*07:02. In words: thermal melting temperature (Tm) of peptide-HLA complex; higher = more thermostable pHLA complex. Particulars: C1R-B*07:02.
In the case of TPRGGVGSVAL, the thermal melting temperature worked out at 59.3 °C.

The sequence APREGISQEAL displayed a thermal melting temperature of 59.4 °C.

Sequence APAQPQPQL returned a thermal melting temperature of 60.8 °C.

On to TPMPKDVRQSL, for which the thermal melting temperature is 44.5 °C.

Sequence LPFKYPAVL came in with a thermal melting temperature of 61.5 °C.

VPNWHRDLV registered a thermal melting temperature of 58.3 °C.

As to EPAPASVTAL, the thermal melting temperature was 56.6 °C.

In turn, HPHAVNEIAL displayed a thermal melting temperature of 57.5 °C.

Sequence APAQLPLVL yielded a thermal melting temperature of 63.3 °C.

On to SPNGTIRNIL, for which the thermal melting temperature was 60.5 °C.

APHDYGLIL: the thermal melting temperature amounted to 62 °C.

As to QPIPFPKEAL, the thermal melting temperature was 60.7 °C.

APQPAQVAL registered a thermal melting temperature of 58.9 °C.

For the sequence AARAVTGVL, the thermal melting temperature worked out at 60.7 °C.

For VVRIITSEL, the thermal melting temperature was determined as 58.6 °C.

The sequence APWSREAVL displayed a thermal melting temperature of 62.2 °C.

Sequence SPLVSRLTL came in with a thermal melting temperature of 61.4 °C.

The sequence SPYLPRGDPVL came in with a thermal melting temperature of 59.8 °C.

On to SPRGAGYL, for which the thermal melting temperature came to 54.2 °C.

SPSKENIASVL came in with a thermal melting temperature of 60.2 °C.

For IPQKQREITL, the thermal melting temperature worked out at 59.1 °C.

TPSPARPAL gave a thermal melting temperature of 62.5 °C.

Sequence RPALPALLV came in with a thermal melting temperature of 62.4 °C.

Consider RPLYKNIVL, for which the thermal melting temperature was 60.7 °C.

In turn, VIAPVRAVL showed a thermal melting temperature of 59.2 °C.

As for HPFLQRQQL, the thermal melting temperature was 53.5 °C.

As to IPSGKRALI, the thermal melting temperature was 61.6 °C.

The sequence APINFTSRL yielded a thermal melting temperature of 60.9 °C.

In the case of RPRPGNILL, the thermal melting temperature was determined as 60 °C.

Sequence GPKPGGGPGL displayed a thermal melting temperature of 55 °C.

On to KPRVTPVEVM, for which the thermal melting temperature is 55.8 °C.

Take RPWSETIKL: the thermal melting temperature is 55.5 °C.

RPSPPVQSV had a thermal melting temperature of 56.9 °C.

KASLRELAL returned a thermal melting temperature of 55 °C.

As to LPLAHVLEL, the thermal melting temperature was determined as 62 °C.

MPSASRVILL yielded a thermal melting temperature of 62.7 °C.

On to LPFRGSGTAI, for which the thermal melting temperature stood at 58 °C.

Regarding SPRISPATTL, the thermal melting temperature was found to be 60.5 °C.

Turning to APALPGPQF, the thermal melting temperature was determined as 64.8 °C.

Consider APSAAKLLVQL, for which the thermal melting temperature is 62.1 °C.

The sequence IPRGVNVSAL yielded a thermal melting temperature of 62.5 °C.

Regarding RPIGIGVQGL, the thermal melting temperature was 58.7 °C.

For SPRSTFLLAF, the thermal melting temperature amounted to 62.1 °C.

Take IPRNTVVPT: the thermal melting temperature came out at 57.1 °C.

Take RPPSFTPHTL: the thermal melting temperature is 58.7 °C.

In turn, RPKPPSATSI displayed a thermal melting temperature of 58.2 °C.

IPYTGPFNLL registered a thermal melting temperature of 60.7 °C.

With VPRIQPQSL, the thermal melting temperature worked out at 60.4 °C.

With YPMPELGRAL, the thermal melting temperature is 61.7 °C.

In turn, SPFNDRFPL showed a thermal melting temperature of 62.2 °C.

With APRTVLLLLSA, the thermal melting temperature stood at 62.3 °C.

IPRPGEVLGL: the thermal melting temperature came to 61.5 °C.

Sequence FPMGDRLYI yielded a thermal melting temperature of 63 °C.

With IPWTPPGTAL, the thermal melting temperature amounted to 61.6 °C.

For the sequence IPNWARQDL, the thermal melting temperature was 62 °C.

For KPAPPFNVTV, the thermal melting temperature was 61.7 °C.
